# Data as given in a collection of fitness landscapes (doi:10.1016/j.celrep.2020.107928).
# Over roughly 81,000 sequences, “one-hybrid fitness for binding parS DNA” has its median near -0.17; the highest 2% begin near 0.51. This is one part of the list.
# B1: Caulobacter ParB omega fusion; a variant is named by its letters at X, in order, B8GW30 (parent)
# chain: MESVVVGEPGMSEGRRGLGRGLSALLGEVDAAPAQAPGEQLGGSREAPIEILQRNPDQPRRTFREEDLEDLSNSIREKGVLQPILVRPSPDTAGEYQIVAGERAWRAAQRAGLKTVPIMVRELDDLAVLEIGIIENVQRADLNVLEEALSYKVLMEKFERTQENIAQTIGKSXSHVANXMRLLXLPDEVQSYLVSGELTAXHARAIAAAADPVALAKQIIEGGLSVRETEALARKAPNLSAGKSKGGRPPRVKDTDTQALESDLSSVLGLDVSIDHRGSTGTLTITYATLEQLDDLCNRLTRGI
# Variants of: B1
# Test: one-hybrid fitness for binding parS DNA (scaled: cognate 1, non-cognate 0); higher = stronger binding
# Conditions: with parS DNA site
# How it was run: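 Caulobacter ParB libraries with four specificity codons randomised were screened by bacterial one-hybrid selection in the E. coli USO strain, using a HIS3 reporter whose site lies 19 bp from the promoter. Selection ran for 48 hours at 37°C on M9 lacking histidine, with 0.1 mM IPTG and 5 mM 3-AT. Plasmids were Illumina-sequenced before and after selection, three replicate libraries were pooled, and variants with under 10 reads were dropped. Fitness is the log change in each variant's read ratio to wild type, rescaled against the cognate and non-cognate sites.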
row,Variant,one-hybrid fitness for binding parS DNA
1,FWPP,≤ 0.2
2,EDQY,0.399
3,VWLG,≤ 0.2
4,QYVS,≤ 0.2
5,VVRT,≤ 0.2
6,TVFC,≤ 0.2
7,STYK,≤ 0.2
8,KGPC,≤ 0.2
9,MAAF,≤ 0.2
10,EYNG,≤ 0.2
11,IRIE,≤ 0.2
12,MTDI,≤ 0.2
13,ETLI,≤ 0.2
14,QNFS,≤ 0.2
15,APVC,≤ 0.2
16,HDMG,≤ 0.2
17,LILC,≤ 0.2
18,WPGL,≤ 0.2
19,LAKA,≤ 0.2
20,FVNR,≤ 0.2
21,GSYG,≤ 0.2
22,NYLT,≤ 0.2
23,KMNS,≤ 0.2
24,IYVA,≤ 0.2
25,DPSY,≤ 0.2
26,FITI,≤ 0.2

row,Variant,one-hybrid fitness for binding parS DNA
1,HPEI,≤ 0.2
2,YCVC,≤ 0.2
3,MPHF,≤ 0.2
4,GPPW,≤ 0.2
5,NYMV,≤ 0.2
6,QDTV,≤ 0.2
7,WDFS,≤ 0.2
8,RQPI,≤ 0.2
9,PICT,≤ 0.2
10,QYEL,≤ 0.2
11,PEIA,≤ 0.2
12,KLTS,≤ 0.2
13,NQSM,≤ 0.2
14,SSLL,≤ 0.2
15,HTWA,≤ 0.2
16,CPRM,≤ 0.2
17,GRQR,≤ 0.2
18,RRTV,≤ 0.2
19,FGTG,≤ 0.2
20,TQHT,≤ 0.2
21,ADIL,≤ 0.2
22,MSNT,≤ 0.2
23,CKHA,≤ 0.2
24,PVCL,≤ 0.2
25,NHLR,≤ 0.2
26,YIWV,≤ 0.2

row,Variant,one-hybrid fitness for binding parS DNA
1,FPYG,≤ 0.2
2,QNMR,≤ 0.2
3,GHKV,≤ 0.2
4,GARV,≤ 0.2
5,GRMS,≤ 0.2
6,SKPK,≤ 0.2
7,RCDS,1.02
8,LGLW,≤ 0.2
9,HFER,≤ 0.2
10,TYDM,≤ 0.2
11,LRAW,≤ 0.2
12,CYVG,≤ 0.2
13,ASGV,≤ 0.2
14,SSRV,≤ 0.2
15,NAKG,≤ 0.2
16,LTNW,≤ 0.2
17,LTDR,≤ 0.2
18,LSID,≤ 0.2
19,KRSS,≤ 0.2
20,DMYT,≤ 0.2
21,LEAP,≤ 0.2
22,YDSI,≤ 0.2
23,ADPD,≤ 0.2
24,TTNQ,≤ 0.2
25,TAQG,≤ 0.2
26,HIDR,≤ 0.2

row,Variant,one-hybrid fitness for binding parS DNA
1,AAST,≤ 0.2
2,PFAK,≤ 0.2
3,KWKT,≤ 0.2
4,CRTM,≤ 0.2
5,WPLL,≤ 0.2
6,EKFF,≤ 0.2
7,SEHY,≤ 0.2
8,MRPC,≤ 0.2
9,IMHR,≤ 0.2
10,GDLG,≤ 0.2
11,IIAL,≤ 0.2
12,YWVC,≤ 0.2
13,GKNA,≤ 0.2
14,FGHR,≤ 0.2
15,RLPN,0.225
16,KRVH,≤ 0.2
17,REGF,≤ 0.2
18,SHQL,≤ 0.2
19,QCYV,≤ 0.2
20,WISS,≤ 0.2
21,YRPV,≤ 0.2
22,YGYG,≤ 0.2
23,NEVW,≤ 0.2
24,NHVT,≤ 0.2
25,LHKA,≤ 0.2
26,WHTC,≤ 0.2

row,Variant,one-hybrid fitness for binding parS DNA
1,QKRT,≤ 0.2
2,YVAS,≤ 0.2
3,RKLS,0.876
4,QGCS,≤ 0.2
5,LYVY,≤ 0.2
6,MLKV,≤ 0.2
7,WCLG,≤ 0.2
8,KVMW,≤ 0.2
9,AQFK,≤ 0.2
10,QLNQ,≤ 0.2
11,QCSD,≤ 0.2
12,QWER,≤ 0.2
13,HYDL,≤ 0.2
14,NDNV,≤ 0.2
15,ANCF,≤ 0.2
16,ENWG,≤ 0.2
17,STFF,≤ 0.2
18,NDHS,≤ 0.2
19,HRFE,≤ 0.2
20,RHSI,≤ 0.2
21,PMVT,≤ 0.2
22,FCDG,≤ 0.2
23,KLVS,≤ 0.2
24,PDKY,≤ 0.2
25,HRNF,≤ 0.2
26,TNAV,≤ 0.2

row,Variant,one-hybrid fitness for binding parS DNA
1,PCMS,≤ 0.2
2,DYYN,≤ 0.2
3,SKIK,≤ 0.2
4,HDPP,≤ 0.2
5,GLKA,≤ 0.2
6,VQTR,≤ 0.2
7,SAAW,≤ 0.2
8,RFSW,0.247
9,RNRD,≤ 0.2
10,CITN,≤ 0.2
11,PYGV,≤ 0.2
12,DVNT,≤ 0.2
13,TRNM,≤ 0.2
14,NRES,≤ 0.2
15,FGQC,≤ 0.2
16,YRRG,0.271
17,QKAQ,≤ 0.2
18,CIVI,≤ 0.2
19,DRKM,≤ 0.2
20,TLEG,≤ 0.2
21,RADR,≤ 0.2
22,GKHA,≤ 0.2
23,SNSF,≤ 0.2
